Screen size: about 360,000 compounds; about 6,000 (1.7%) were called active. Inconclusive means that the source gave no clear call. Such entries were picked first, then a sample of the others. The call rests on the fitted dose curve; in most records, active means well fitted cell-killing curve with a large enough effect; inconclusive means small, poorly fitted or top-dose-only effect, or effect the other way; inactive means flat fitted curve, though single readings scatter. Potencies of inconclusive entries are left out as doubtful fits.
Assay: qHTS for induction of synthetic lethality in tumor cells producing 2HG: qHTS for the HT-1080-NT fibrosarcoma cell line;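 further: NT is the 2HG producing partner of a matched IDH1 knockdown line; nearly all actives have a fitted effect of over 55% in size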;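 on activity, negative = less viability: 0% = DMSO-treated cells and -100% = media-only wells without cells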
Settings: HT-1080-NT fibrosarcoma viability, CellTiter-Glo ATP luminescence, 48 h; activity, negative = less viability: at 46.1 µM (top of the series) unless noted
Outline: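 Compounds were tested in concentration-response format on HT-1080-NT cells for 48 hours at 37 degrees C. Cell viability came from CellTiter-Glo luminescence; curves were classified by r2, response magnitude and activity.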
With `c1ccc2c(Nc3nc(N4CCOCC4)c4ccccc4n3)cccc2c1` the Potency was active: 20.6 µM. In the case of `Cc1cccc(CC(=O)N2CCN=C2SCc2ccc([N+](=O)[O-])cc2)c1`, the Potency is reported as inconclusive [cytotoxic, single point]. For `CCCS(=O)(=O)NC(=O)C1(C)CCN(C(=O)c2ccccc2C(F)(F)F)C1` (stereo not given), the “activity, negative = less viability” value was inactive: 14.7%. In the case of `N#Cc1ccc(NC(=S)/N=C(\N)c2ccccc2)cc1`, the Potency is reported as inconclusive [cytotoxic, single point]. With `Cc1ccsc1C(=O)Nc1nc2ccccc2[nH]1` the Potency was inconclusive [cytotoxic, single point]. With `C=C(C)c1ccccc1` the Potency was inconclusive [rising, full curve]. With `CC(=O)Oc1c(C)cc(Cl)cc1C(=O)Nc1ccc([N+](=O)[O-])cc1Cl` the Potency was inconclusive [cytotoxic, full curve]. For `COc1ccccc1C1CCN(C(=O)c2cnn(-c3ccccc3)c2C)CC1`, the “activity, negative = less viability” value was inactive: -0.573%. With `COc1ccc(-c2csc(NC(C)c3nc4cc(Cl)c(N5CCCCC5)cc4n3CCCO)n2)cc1` (stereo not given) the Potency was inconclusive [cytotoxic, single point]. With `C#CCOCCOCCOCCNc1nc(N2CCN(C(=O)CCCCCCCCCCNC(=O)[C@H](CCCCN)n3cc(CCCC(=O)O)nn3)CC2)nc(N2CCN(C(=O)CCCCCCCCCCNC(=O)[C@@H]([C@H](C)O)n3cc(C)nn3)CC2)n1` the “activity, negative = less viability” value was inactive: 1.51%. With `COc1ccc(-c2noc(C)c2-c2ccc3ccccc3n2)c(O)c1` the Potency was inconclusive [cytotoxic, partial curve]. With `C=C(C)COc1ccc(-c2n[nH]c(C)c2-c2ccccc2)c(O)c1` the Potency was active: 20.6 µM. With `COCCN1C(=O)c2cc(C(=O)Nc3ccc(OC)c(OC)c3)ccc2C1Nc1ccc(OC)c(OC)c1` (stereo not given) the “activity, negative = less viability” value was inactive: 5.33%. In the case of `COc1ccc(Cl)cc1S(=O)(=O)N1CCC(C(=O)NC2CC2)CC1`, the “activity, negative = less viability” value is reported as inactive: 0.664%. In the case of `COc1ccc(C(=N/O)/C(=N/O)c2ccc(OC)cc2)cc1`, the Potency is reported as inconclusive [cytotoxic, single point]. For `NS(=O)(=O)c1ccc(CCNC(=O)CNC(=O)c2ccc(Br)o2)cc1`, the activity, negative = less viability was inactive: -0.414% [at 9.24 µM]. With `Cc1cc(CNC(=O)COc2c(F)c(F)cc(F)c2F)c2ccccc2n1` the Potency was inconclusive [cytotoxic, single point]. For `COc1ccc(S(=O)(=O)N(C)C[C@@H]2Oc3cc(Br)ccc3S(=O)(=O)N([C@H](C)CO)C[C@@H]2C)cc1`, the Potency was inconclusive [cytotoxic, single point]. With `O=C(CC(c1cccs1)S(=O)(=O)c1ccccc1)c1ccc(F)cc1` (stereo not given) the Potency was inconclusive [rising, single point]. With `O=S(=O)(c1cnc(Cl)c(Cl)c1)N1CCc2ccccc21` the activity, negative = less viability was inconclusive: 32.5%. For `COc1ccc(Cn2c(SCc3ccc(C)cc3)nc3cc(OC)c(OC)cc3c2=N)cc1Cl`, the Potency was active: 20.6 µM. In the case of `COc1cccc2c1C1COC3C4CC(C(=O)O)C(C(C2)N13)N4C` (stereo not given), the Potency is reported as active: 5.8 µM. For `COc1ccc(OC)c(N=Cc2c(O)c3ccccc3oc2=O)c1`, the “activity, negative = less viability” value was inactive: 1.5%. In the case of `O=C(CSc1nc2ccccc2o1)NC1CCS(=O)(=O)C1` (stereo not given), the “activity, negative = less viability” value is reported as inactive: 17.2%. For `c1ccc2c(c1)CCN(c1ncnc3nc[nH]c13)C2`, the “activity, negative = less viability” value was inactive: 14.6%. For `Cc1cccc(-n2c(C)cc(/C=C3\NC(=O)NC3=O)c2C)c1`, the Potency was inconclusive [cytotoxic, single point]. With `O=C1N=c2ccc(Br)cc2=C1c1sc(=S)n(NS(=O)(=O)c2ccccc2)c1O` the Potency was inconclusive [cytotoxic, single point]. In the case of `CCC(=O)c1ccc(OCCN2CCOCC2)cc1`, the “activity, negative = less viability” value is reported as inactive: -0.679%. In the case of `Cc1ccccc1NC(=O)c1cc(S(=O)(=O)N2CCCCC2)ccc1N1CCOCC1`, the “activity, negative = less viability” value is reported as inactive: 3.16%. In the case of `Cc1c(-c2ccccc2)oc2c(C(=O)N3CCN(c4ccccc4F)CC3)cccc2c1=O`, the “activity, negative = less viability” value is reported as inactive: 11.4%. For `O=C(COc1ccccc1Br)NCc1ccccn1`, the Potency was inconclusive [cytotoxic, single point]. For `CC(=O)Nc1ccc(S(=O)(=O)NC2=C(N3CCN(Cc4ccccc4)CC3)C(=O)c3ccccc3C2=O)cc1`, the Potency was inconclusive [cytotoxic, single point]. With `O=C(CCl)Nc1cc(S(=O)(=O)N2CCCCCC2)ccc1Cl` the Potency was active: 23.1 µM. With `COCCOC(=O)c1c(NC(=O)CNc2ccc(C)c(F)c2)sc(C(N)=O)c1C` the Potency was inconclusive [cytotoxic, full curve]. With `Cc1cc(C(=O)NN=C2CCCC2)c2ccccc2n1` the Potency was inconclusive [cytotoxic, single point]. For `O=C1NC(Cc2c[nH]c3ccccc23)C(=O)N1Cc1ccccc1` (stereo not given), the “activity, negative = less viability” value was inactive: 3.8%. For `Cc1oc(-c2ccccc2F)nc1CN1CCC(C(=O)NC2CCCCCCC2)CC1`, the “activity, negative = less viability” value was inactive: 7.3%. With `CCCc1cc(=O)[nH]c(SCC(=O)Nc2sc(C(N)=O)c(C)c2C(=O)OCCOC)n1` the Potency was active: 2.31 µM. With `CC1=CC(=O)C(C(C)C)=C/C1=C(\c1cc(C(C)C)c(OP(=O)(O)O)cc1C)c1ccccc1C(=O)O` the Potency was inconclusive [cytotoxic, single point]. In the case of `Cc1cccn2c(=O)c(/C=C(\C#N)C(=O)NC3CCS(=O)(=O)C3)c(N3CCC(C(N)=O)CC3)nc12` (stereo not given), the “activity, negative = less viability” value is reported as inactive: 6.63%. With `CCn1c(C)c(C(C)=O)c(N2CCN(C(c3ccccc3)c3ccccc3)CC2)nc1=S` the Potency was inconclusive [cytotoxic, single point]. In the case of `Nc1nonc1-n1nnc(C(=O)N/N=C/c2c(Cl)cccc2Cl)c1CN1CCOCC1`, the Potency is reported as inconclusive [rising, single point]. For `CN(CCc1ccccc1)C(c1ccnc2ccccc12)c1nnnn1-c1ccc2c(c1)OCCO2` (stereo not given), the Potency was inconclusive [cytotoxic, single point]. With `Brc1ccc(/C=N/Nc2ccccc2)cc1` the Potency was inconclusive [cytotoxic, full curve, poor fit]. With `Cc1ccc(C(=O)ONc2ccc(N=NC(=O)c3ccccc3O)cc2)cc1` the activity, negative = less viability was inconclusive: -29.3% [cytotoxic].
Potency means the concentration at half of the fitted maximal effect; tags describe the fitted curve by direction and shape.
